Variants at the background level are over-represented here.
B1: TPR 5TU (parent)
chain: GGAUCUUCUCGAUCUAACAAAAAAGACAAAUCUGCCACAAAGCUUGAGAGCAUCUUCGGAUGCAGAGGCGGCAGCCUUCGGUGGCGCGAUAGCGCCAACGUUCUCAACUAUGACACGCAAAACGCGUGCUCCGUUGAAUGGAGUUUAUCAUG

Variants of: B1
Assay: polymerase ribozyme fitness, log enrichment relative to wild type (log ratio); higher = more active; in vitro selection for triplet polymerase activity
Outline: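 To select mutant libraries of each subunit of a heterodimeric triplet polymerase ribozyme, built by PCR and transcribed, each was annealed with a biotinylated primer, partner subunit and triplets, then incubated frozen at −7 °C. Extended constructs were gel-excised, captured on streptavidin beads and amplified by RT-PCR, in one round carried out in triplicate. Illumina sequencing of input and output libraries kept genotypes with ≥10 input reads and ≥1 read per output. Fitness is the base-2 logarithm of genotype enrichment relative to wild-type enrichment, from inverse-variance-weighted replicate averages.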

Variant	polymerase ribozyme fitness (log ratio)
GGAUCUUCUCGAUCUAACAAAAAAGACAAAUCUGCCACAAAGCUUGAGAGCAUCUUCGGAUGCAGAGGCGGCAGCCUUCGGUGGCGCGGUAGCGUCAACGUUCUCAACUAUGACACGCAAAACGCGUGCUCCGUUGAAUGGCGUUUAUCAUG [A89G C95U A142C]	-2.81
GGAUCUUCUCGAUCUAACAAAAAAGACAAAUCUGCCACAAAGCUUGAGAGCAUCUUCGGAUGCAGAGGCGGCAGCCUUCGGUGGCGCGGUAGCGCCAACGUUCUCAACUAUGACACGCAAAACGAGUGCUCCGUUGAAUGGAGUUUAUCAUG [A89G C125A]	-1.77
GGAUCUUCUCGAUCUAACAAAAAAGACAAAUCUGCCACAAAGCUUGAGAGCAUCUUCGGAUGCAGAGGCGGCAGCCUUCGGUGGCGCGGUAGCGCCAACGUUCUCAACUAUGACACUCAAAACGCGUGCUCCGUUGAAUGGAGUUUAUCAUG [A89G G117U]	-0.974
GGAUCUUCUCGAUCUAACAAAAAAGACAAAUCUGCCACAAAGCUUGAGAGCAUCUUCGGAUGCAGAGGCGGCAGCCUUCGGUGGCGCGGUAGCGCCAACGUUCUCAACUAUGACACGCAAAACUCGUGCUCCGUUGAAUGGAGUUUAUCAUG [A89G G124U]	-1.93
GGAUCUUCUCGAUCUAACAAAAAAGACAAAUCUGCCACAAAGCUUGAGAGCAUCUUCGGAUGCAGAGGCGGCAGCCUUCGGUGGCGCGGUAGCGCCAACGUUCUCAACUAUGACACGCAAAACGCUUGCUCCGUUGAAUGGAGUUUAGCAUG [A89G G126U U148G]	-4.06
GGAUCUUCUCGAUCUAACAAAAAAGACAAAUCUGCCACAAAGCUUGAGAGCAUCUUCGGAUGCAGAGGCGGCAGCCUUCGGUGGCGCGGUAGCGCCAACGUUCUCAACUAUGACACGCAAAACGCGUCCUCCGUUGAAUGGUGUUUAACAUG [A89G G128C A142U U148A]	≤ -4.2
GGAUCUUCUCGAUCUAACAAAAAAGACAAAUCUGCCACAAAGCUUGAGAGCAUCUUCGGAUGCAGAGGCGGCAGCCUUCGGUGGCGCGUUAGCGCCAACGUUCUCAACUAUGACACGCAAAACGCGUGCUCCGUUGAAUGGAGUUUAUCAUG [A89U]	-0.292
GGAUCUUCUCGAUCUAACAAAAAAGACAAAUCUGCCACAAAGCUUGAGAGCAUCUUCGGAUGCAGAGGCGGCAGCCUUCGGUGGCGCGUUCGCGCGAACGUUCUCAACUAUGACACGCAAAACGCGUGCUCCGUUGAAUGGAGUUUAUCAUG [A89U A91C C96G]	≤ -4.2
GGAUCUUCUCGAUCUAACAAAAAAGACAAAUCUGCCACAAAGCUUGAGAGCAUCUUCGGAUGCAGAGGCGGCAGCCUUCGGUGGCGCGUUUGUGACAACGUUCUCAACUAUGACACGCAAAACGCGUGCUCCGUUGAAUGGAGUUUAUCAUG [A89U A91U C93U C95A]	≤ -4.2
GGAUCUUCUCGAUCUAACAAAAAAGACAAAUCUGCCACAAAGCUUGAGAGCAUCUUCGGAUGCAGAGGCGGCAGCCUUCGGUGGCGCGUUAGCGCCAACGUUCUCAACUAUGACACGCAAUACGCGUGCUCCGUUGAAUGGAGUUUAUCAUG [A89U A121U]	-0.72
GGAUCUUCUCGAUCUAACAAAAAAGACAAAUCUGCCACAAAGCUUGAGAGCAUCUUCGGAUGCAGAGGCGGCAGCCUUCGGUGGCGCGUUAGUGCCAACGUUCUCAACUAUGACACGCAAAACGCGUGCUCCGUUGAAUGGAGUUUAUCAUG [A89U C93U]	-1.6
GGAUCUUCUCGAUCUAACAAAAAAGACAAAUCUGCCACAAAGCUUGAGAGCAUCUUCGGAUGCAGAGGCGGCAGCCUUCGGUGGCGCGUUAGUGCCAAUGUUCUCAACUAUGACACGCAAAACGCGUGCUCCGUUGAAUGGAGUUUAUCAUG [A89U C93U C99U]	≤ -4.2
GGAUCUUCUCGAUCUAACAAAAAAGACAAAUCUGCCACAAAGCUUGAGAGCAUCUUCGGAUGCAGAGGCGGCAGCCUUCGGUGGCGCGUUAGCGACUACGUUCUCAACUAGGACACGCAAAACACGUGCUCCGUUGAAUGGAGUUUAUAACG [A89U C95A A97U U111G G124A C149A U151C]	≤ -4.2
GGAUCUUCUCGAUCUAACAAAAAAGACAAAUCUGCCACAAAGCUUGAGAGCAUCUUCGGAUGCAGAGGCGGCAGCCUUCGGUGGCGCGUUAGCGACAACGUUGUCAACUAUGACACCCACAACGCGUGCUCCGUUGAAUGGAGUUUAUCAUG [A89U C95A C103G G117C A120C]	≤ -4.2
GGAUCUUCUCGAUCUAACAAAAAAGACAAAUCUGCCACAAAGCUUGAGAGCAUCUUCGGAUGCAGAGGCGGCAGCCUUCGGUGGCGCGUUAGCGACAACGUUCUCAACUAGGACACGCAAAACGCGUGCUACGUUGAAUGGAGUUUAUCAUA [A89U C95A U111G C131A G152A]	≤ -4.2
GGAUCUUCUCGAUCUAACAAAAAAGACAAAUCUGCCACAAAGCUUGAGAGCAUCUUCGGAUGCAGAGGCGGCAGCCUUCGGUGGCGCGUUAGCGGCAACGUUCUCAACUAUGACACGCAAAACGCGUGCUCCGUUGAAUGGAGUUUAUCAUG [A89U C95G]	-1.9
GGAUCUUCUCGAUCUAACAAAAAAGACAAAUCUGCCACAAAGCUUGAGAGCAUCUUCGGAUGCAGAGGCGGCAGCCUUCGGUGGCGCGUUAGCGCUAACGUUCUCAACUAUGACACGCAAAACGCGUGCUCCGUUGAGUGGAGUUGAUCAUG [A89U C96U A138G U146G]	≤ -4.2
GGAUCUUCUCGAUCUAACAAAAAAGACAAAUCUGCCACAAAGCUUGAGAGCAUCUUCGGAUGCAGAGGCGGCAGCCUUCGGUGGCGCGUUAGCGCCAACGUUCUCAAAUAUGACACGCAAAACGCGUGCUCUGUUGAAUGGAGUUUAUCAUG [A89U C108A C132U]	≤ -4.2
GGAUCUUCUCGAUCUAACAAAAAAGACAAAUCUGCCACAAAGCUUGAGAGCAUCUUCGGAUGCAGAGGCGGCAGCCUUCGGUGGCGCGUUAGCGCCAACCUGCUCAACUAUGACACGCAAAACGCGUGCUCCGUUGAAUGGAGUUUAUCAUG [A89U G100C U102G]	≤ -4.2
